Measurements reported in PubChem BioAssay (NCATS).
The shares of active, inactive and inconclusive entries below differ from those in the screen. For part of these data: A potency beside an inconclusive call is a rough fit, not a confirmed value. Active and inactive are the calls of the source. The call rests on the fitted dose curve; in most records, active means well fitted curve in the direction sought with a large enough effect; inconclusive means small, poorly fitted or top-dose-only effect, or another doubt; inactive means no such curve, though single readings can be large; an effect the other way counts as inactive or inconclusive.

Key:
[1] = P-glycoprotein substrates identified in KB-8-5-11 adenocarcinoma cell line, qHTS therapeutic library screen (AID 1346987); further: nearly all actives have a fitted effect of over 65% in size
In short: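 KB-8-5-11, a colchicine-selected P-gp-overexpressing KB-3-1 subline, was grown without colchicine for the assay. Cells were seeded at 500 cells/well, dosed in concentration-response and incubated 72 h at 37 degree C, 5% CO2. Viability was read by CellTiter-Glo luminescence.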

[2] = test system: Zika virus NS2B-NS3 protease (linked construct); assay: Primary screen NINDS Rhodamine qHTS for Zika virus inhibitors (AID 1347160); conditions: activity change, negative = inhibition: at 57.1 µM (top of the series) unless noted; further: nearly all actives have a fitted effect of over 55% in size
In short: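 Purified linked NS2B-NS3 protease (NS2B hydrophilic domain joined to NS3 protease by flexible linker), 25 nM in 10 mM Tris-HCl pH 8.0, 0.01% Tween 20. Compounds titrated, 15 min preincubation at room temperature; 1.5 microM Rhodamine110 substrate, FITC fluorescence change over 15 min.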

[3] = Primary qHTS for inhibitors of nuclear receptor binding SET domain protein 2 (NSD2) in an RCH-ACV wild type WT cells (2C) (AID 1645877); conditions: activity change, negative = cell killing: at 44.9 µM (top of the series) unless noted; further: nearly all actives have a fitted effect of over 70% in size; on activity change, negative = cell killing: on the % scale 0 is the no-effect control and ±100 the full control effect
[4] = Primary fluorescence-based thiol-reactive (MSTI) qHTS assay for identification of artifact compounds. (AID 1845221);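 further: thiol-reactive compounds lower the probe fluorescence signal; nearly all actives have a fitted effect of over 65% in size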
In short: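 MSTI probe at 4 uM final in 2% DMSO/PBS pH 7.4; compounds, 1 h at room temperature in dark. Fluorescence Ex/Em 525/598 nm, normalised to Acetyl-MSTI and MSTI, fitted to 4-parameter Hill.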

CRL-7250 = normal cell line; assay: Cytotoxic Profiling of Annotated Libraries Using Quantitative High-Throughput Screening (AID 1296008); conditions: Five cell lines viability, CellTiter-Glo ATP luminescence, 48-72 h; max response: active compounds read low; further: nearly all actives have a fitted effect of over 60% in size
In short: (§1)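 Cells exposed to compounds for 48 or 72 hr at 37 degrees Celsius. Viability read as ATP-coupled luminescence with CellTiter-Glo after 10 min at room temperature.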

KB-3-1 = assay: as above; conditions: Five cell lines viability, CellTiter-Glo ATP luminescence, 48-72 h; max response: active compounds read low
In short: as §1

SKOV3 = assay: Primary qHTS to identify gynecologic anti-cancer compounds using libraries of approved drugs and bioactive compounds (AID 1345084); conditions: Gynecologic cancer cell panel viability, ATPlite luminescence, 48 h; series mostly up to 57.5 µM; further: nearly all actives have a fitted effect of over 55% in size; on activity change, negative = cytotoxicity: on the % scale 0 is the no-effect control and ±100 the full control effect
In short: (§2)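 Cells, 1,000 per well, plated 16 h, then exposed 48 h at 37 C to compounds. Viability by ATPlite luminescence after 15 min at room temperature.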

Tov-21-G = assay: as above; conditions: Gynecologic cancer cell panel viability, ATPlite luminescence, 48 h; activity change, negative = cytotoxicity: at 57.5 µM (top of the series) unless noted
In short: as §2

NIH3T3 = assay: Cytotoxic Profiling of Annotated Libraries Using Quantitative High-Throughput Screening (AID 1296008); conditions: Five cell lines viability, CellTiter-Glo ATP luminescence, 48-72 h; max response: active compounds read low; further: nearly all actives have a fitted effect of over 60% in size
In short: as §1

CASKI = assay: Primary qHTS to identify gynecologic anti-cancer compounds using libraries of approved drugs and bioactive compounds (AID 1345084); conditions: Gynecologic cancer cell panel viability, ATPlite luminescence, 48 h; series mostly up to 57.5 µM; further: nearly all actives have a fitted effect of over 55% in size; on activity change, negative = cytotoxicity: on the % scale 0 is the no-effect control and ±100 the full control effect
In short: as §2

Tov112D = assay: as above; conditions: Gynecologic cancer cell panel viability, ATPlite luminescence, 48 h; series mostly up to 57.5 µM
In short: as §2

[5] = Primary qHTS for inhibitors of nuclear receptor binding SET domain protein 2 (NSD2) in an isogenic RCH-ACV NSD2 p.E1099K mutant (9B) (AID 1645876); further: nearly all actives have a fitted effect of over 70% in size
CAOV3 = assay: Primary qHTS to identify gynecologic anti-cancer compounds using libraries of approved drugs and bioactive compounds (AID 1345084); conditions: Gynecologic cancer cell panel viability, ATPlite luminescence, 48 h; activity change, negative = cytotoxicity: at 57.5 µM (top of the series); further: nearly all actives have a fitted effect of over 55% in size; on activity change, negative = cytotoxicity: on the % scale 0 is the no-effect control and ±100 the full control effect
In short: as §2

JEG-3 = assay: as above; conditions: Gynecologic cancer cell panel viability, ATPlite luminescence, 48 h; series mostly up to 57.5 µM
In short: as §2

PA-1 = assay: as above; conditions: Gynecologic cancer cell panel viability, ATPlite luminescence, 48 h; series mostly up to 57.5 µM
In short: as §2

[6] = test system: Zika virus NS2B-NS3 protease (unlinked complex); assay: Primary screen GU Rhodamine qHTS for Zika virus inhibitors: Unlinked NS2B-NS3 protease assay (AID 1347159); further: nearly all actives have a fitted effect of over 60% in size
In short: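 Noncovalent NS2B hydrophilic domain–NS3 protease domain complex (25 nM) preincubated 15 min at room temperature with compounds (up to 114 microM) in 10 mM Tris-HCl pH 8.0, 0.01% Tween 20; 1.5 microM Rhodamine110 substrate added, fluorescence change over 15 min fitted to Hill equation.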

Hek293T = assay: Primary qHTS to identify gynecologic anti-cancer compounds using libraries of approved drugs and bioactive compounds (AID 1345084); conditions: Gynecologic cancer cell panel viability, ATPlite luminescence, 48 h, control line for the selectivity index; activity change, negative = cytotoxicity: at 57.5 µM (top of the series) unless noted; further: nearly all actives have a fitted effect of over 55% in size
In short: as §2

OV90 = assay: as above; conditions: Gynecologic cancer cell panel viability, ATPlite luminescence, 48 h; series mostly up to 57.5 µM
In short: as §2

C33A = assay: as above; conditions: Gynecologic cancer cell panel viability, ATPlite luminescence, 48 h; series mostly up to 57.5 µM
In short: as §2

Es-2 = assay: as above; conditions: Gynecologic cancer cell panel viability, ATPlite luminescence, 48 h; series mostly up to 57.5 µM
In short: as §2
Potency means the concentration at half of the fitted maximal effect; tags describe the fitted curve by direction and shape.

CC(=O)C1=C(O)C=C2Oc3c(C(C)=O)c(O)c(C)c(O)c3[C@]2(C)C1=O
inactive: Potency [3] | outcome (CRL-7250) | Potency (SKOV3) | Potency (Tov-21-G)
inconclusive: Potency [1] 29.1 µM [inhibitor, single point] | Potency [2] 28.2 µM [inhibitor, single point] | Potency [4] 3.36 µM [inhibitor, partial curve] | Potency (KB-3-1) 20.6 µM [inhibitor, single point]

C=CC(=O)Nc1cccc(Nc2nc(NC3CCC(N(C)C)CC3)nc3c2ncn3C(C)C)c1 (stereo unspecified)
active: Potency (CRL-7250) 0.59 µM | Potency (NIH3T3) 14.8 µM

Cc1cc(C(=O)Nc2cc(Oc3ccc4nc(NC(=O)C5CC5)cn4n3)ccc2C)n(C)n1
inactive: Potency (CASKI)
active: Potency (SKOV3) 10 µM
inconclusive: Potency (CRL-7250) 29.1 µM [inhibitor, single point] | Potency (KB-3-1) 18.4 µM [inhibitor, single point] | Potency (Tov-21-G) 20 µM [cytotoxic, single point] | Potency (Tov112D) 31.6 µM [cytotoxic, single point]

CC(C)(C)NS(=O)(=O)c1cncc(-c2cc(F)c3nc(N)nn3c2)c1
inconclusive: Potency [5] 5.15 µM [inhibitor, partial curve] | Potency [3] 5.15 µM [inhibitor, partial curve] | Potency (PA-1) 39.8 µM [rising, single point]
inactive: Potency [1] | outcome (CRL-7250) | outcome (KB-3-1) | Potency (CAOV3) | Potency (JEG-3)

C/C(=C\C(=O)OCCCCCCCCC(=O)O)C[C@@H]1OC[C@H](C[C@@H]2O[C@H]2[C@@H](C)[C@H](C)O)[C@@H](O)[C@H]1O
inactive: Potency [1] | max response (CRL-7250) 4.39% | Potency (CASKI)
inconclusive: Potency [5] 16.3 µM [inhibitor, partial curve, poor fit] | Potency [3] 8.17 µM [inhibitor, partial curve, poor fit] | Potency (KB-3-1) 29.1 µM [inhibitor, single point] | Potency (SKOV3) 12.6 µM [rising, partial curve, poor fit]

N[C@@H](Cc1ccc(O)cc1)C(=O)O
inactive: max response (CRL-7250) 1.09% | max response (KB-3-1) -4.34% | activity change, negative = cytotoxicity (CAOV3) -13.2% [at 11.6 µM]

CCC(=C(c1ccc(OCCN2CCCC2)cc1)c1ccc(OCCN2CCCC2)cc1)c1ccccc1
inactive: Potency [6] | Potency (Hek293T)
inconclusive: Potency [1] 20.6 µM [inhibitor, single point] | Potency (CRL-7250) 20.6 µM [inhibitor, single point] | Potency (KB-3-1) 29.1 µM [inhibitor, single point] | Potency (OV90) 25.1 µM [cytotoxic, single point] | Potency (PA-1) 20 µM [cytotoxic, single point] | Potency (SKOV3) 25.1 µM [cytotoxic, single point]

COc1ccc(C[C@H]2COC(=O)[C@@H]2Cc2ccc(O[C@@H]3O[C@H](CO)[C@@H](O)[C@H](O)[C@H]3O)c(OC)c2)cc1OC
active: Potency (CRL-7250) 0.893 µM | Potency (SKOV3) 4.47 µM
inconclusive: Potency [1] 4.47 µM [inhibitor, partial curve] | Potency [5] 2.52 µM [inhibitor, partial curve] | Potency [3] 3.55 µM [inhibitor, partial curve] | Potency (KB-3-1) 1.59 µM [inhibitor, full curve] | Potency (CASKI) 20 µM [cytotoxic, single point] | Potency (Hek293T) 10 µM [cytotoxic, single point] | Potency (PA-1) 0.794 µM [cytotoxic, full curve, poor fit]
inactive: Potency [6] | Potency [2]

CC1=CC(=O)[C@]2(O[C@@H]3O[C@@H](C)[C@H](O)[C@@H](O)[C@H]3OC(=O)/C=C/c3ccccc3)C=CO[C@@H](O[C@@H]3O[C@H](CO)[C@@H](O)[C@H](O)[C@H]3O)[C@H]12
inactive: Potency [5] | Potency [3] | max response (KB-3-1) 8.78%
inconclusive: Potency [6] 6.31 µM [inhibitor, full curve] | Potency (CRL-7250) 8.62 µM [inhibitor, single point] | Potency (SKOV3) 1.26 µM [cytotoxic, single point]

CO[C@H]1C[C@@H]2CC[C@@H](C)[C@@](O)(O2)C(=O)C(=O)N2CCCC[C@H]2C(=O)O[C@H]([C@@H](C)C[C@@H]2CC[C@@H](O)[C@H](OC)C2)CC(=O)[C@H](C)/C=C(\C)[C@@H](O)[C@@H](OC)C(=O)[C@H](C)C[C@H](C)/C=C/C=C/C=C/1C
inactive: Potency [6] | Potency (Hek293T)
inconclusive: Potency [1] 6.51 µM [inhibitor, partial curve] | Potency [5] 25.8 µM [inhibitor, single point] | Potency [4] 4.23 µM [inhibitor, full curve] | Potency (CRL-7250) 0.0046 µM [inhibitor, full curve] | Potency (KB-3-1) 29.1 µM [inhibitor, single point] | Potency (OV90) 0.0079 µM [cytotoxic, full curve, poor fit] | Potency (PA-1) 3.16 µM [cytotoxic, partial curve, poor fit] | Potency (Tov-21-G) 44.7 µM

COC(=O)C12C(=O)C(C)=C(O)C1(C)C(C)=CC1C3(CO)CCC(O)C(C)(C)C3CCC12C (stereo unspecified)
inactive: Potency [5] | max response (KB-3-1) -2.12%
inconclusive: Potency (CRL-7250) 8.93 µM [inhibitor, single point]

C=C1CC[C@@H]2[C@](C)(CO)[C@H](O)CC[C@@]2(C)[C@@H]1/C=C/C1=CCOC1=O
inconclusive: Potency [1] 20.2 µM [inhibitor, partial curve, poor fit] | Potency [5] 11.3 µM [inhibitor, single point] | Potency [3] 11.3 µM [inhibitor, single point] | Potency (CRL-7250) 16.1 µM [inhibitor, single point] | Potency (KB-3-1) 20.2 µM [inhibitor, partial curve, poor fit]
inactive: Potency (SKOV3)

CN1CCC[C@@H]1CCO[C@](C)(c1ccccc1)c1ccc(Cl)cc1
active: Potency (JEG-3) 20 µM | Potency (OV90) 11.2 µM | Potency (SKOV3) 22.4 µM
inconclusive: Potency (CRL-7250) 29.9 µM [inhibitor, single point] | Potency (NIH3T3) 23.7 µM [inhibitor, single point] | Potency (C33A) 35.5 µM [cytotoxic, single point] | Potency (CAOV3) 39.8 µM [cytotoxic, single point] | Potency (CASKI) 22.4 µM [cytotoxic, partial curve, poor fit] | Potency (Es-2) 35.5 µM [cytotoxic, single point] | Potency (Hek293T) 35.5 µM [cytotoxic, partial curve, poor fit] | Potency (PA-1) 39.8 µM [cytotoxic, single point] | Potency (Tov-21-G) 39.8 µM [cytotoxic, single point] | Potency (Tov112D) 39.8 µM [cytotoxic, single point]

CC(C)=CCCC1(C)C=Cc2c(c(C)cc3c2[nH]c2ccccc23)O1 (stereo unspecified)
active: Potency (SKOV3) 8.91 µM
inconclusive: Potency [1] 2.86 µM [inhibitor, single point] | Potency [6] 10 µM [inhibitor, full curve] | Potency [2] 28.2 µM [inhibitor, single point] | Potency [5] 17.9 µM [inhibitor, single point] | Potency [3] 17.9 µM [inhibitor, single point] | Potency (OV90) 10 µM [cytotoxic, partial curve, poor fit] | Potency (PA-1) 1.58 µM [cytotoxic, full curve, poor fit]
inactive: max response (CRL-7250) -19.1% | max response (KB-3-1) 6.53% | Potency (Hek293T) | Potency (Tov112D)

CC(=O)O[C@H]1C[C@H](OC(C)=O)[C@]2(C)[C@H](CC[C@@]34O[C@@H]3C3=C(C)C(=O)O[C@@H]3C[C@H]42)C1(C)C
inconclusive: Potency [1] 7.96 µM [inhibitor, partial curve] | Potency [5] 10 µM [inhibitor, partial curve] | Potency [3] 11.2 µM [inhibitor, partial curve, poor fit] | Potency (CRL-7250) 14.2 µM [inhibitor, single point] | Potency (KB-3-1) 2 µM [inhibitor, full curve] | Potency (CAOV3) 2.82 µM [rising, single point]
inactive: Potency [2] | Potency (Hek293T)

O=C(Nc1ccccc1)N1CCC(Cc2cnc3ccccc3c2)CC1
inconclusive: Potency [1] 18.4 µM [inhibitor, single point] | Potency [5] 20.5 µM [inhibitor, partial curve] | Potency [3] 14.5 µM [inhibitor, partial curve] | Potency (CRL-7250) 29.1 µM [inhibitor, single point] | Potency (KB-3-1) 16.4 µM [inhibitor, partial curve]
inactive: Potency [6] | Potency (OV90)

CCc1cnc(N2CCC(c3nc(COc4ccc(-n5cnnn5)cc4)cs3)CC2)nc1
inconclusive: Potency [1] 6.51 µM [inhibitor, partial curve] | Potency [5] 10.3 µM [inhibitor, partial curve] | Potency [3] 5.78 µM [inhibitor, full curve] | Potency (CRL-7250) 29.1 µM [inhibitor, single point] | Potency (KB-3-1) 5.8 µM [inhibitor, full curve, poor fit] | Potency (Es-2) 28.2 µM [cytotoxic, partial curve, poor fit] | Potency (Hek293T) 35.5 µM [cytotoxic, single point] | Potency (SKOV3) 17.8 µM [cytotoxic, partial curve, poor fit]
